Measured values from the supplement of paper PMC10126150.
Values marked as one replicate rest on one cluster of the flow cell; about a third of the high ones do not repeat.

These sequences were tested on ATP (assay: switch fluorescence ratio, 500 uM ATP over buffer (Cy3 cluster intensity, sum of 5 cycles each) (fold (ratio)); higher = stronger signal-on switching upon ATP binding; sequences stand for … in TCGTCGGCAGCGTCAGATGTGTATAAGAGACAGTTTTTTTTTTTTTTTTTTTTTTTTT…TC). Settings: aptamer strand: ATP DNA aptamer (quencher-CACCTGGGGGAGTATTGCGGAGGAAGG + anchor), 100 nM annealed; ATP concentration: 500 uM; one replicate.
In short: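 Clusters carrying Cy3-labelled switching strands on a modified Illumina MiSeq flow-cell were annealed to 100 nM quencher-labelled ATP aptamer and imaged in selection buffer. They were imaged again after 15 min with 500 uM ATP at 22 °C, over five buffer/ATP cycles with NaOH stripping and re-annealing in between. For each cluster, the fluorescence ratio is the summed Cy3 intensity of the target cycles divided by that of the buffer cycles, averaged per switch-domain sequence. Clusters outside 100-1000 RFU were left out.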
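Note: ATP exposure 15 min at 22 °C before imaging.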

| Sequence | switch fluorescence ratio |
| --- | --- |
| GACTAAGACG | 0.966 |
| GACTACGGGC | 1.15 |
| GACTAGAAGA | 1.02 |
| GACTAGGACT | 1.01 |
| GACTATAAGT | 1.01 |
| GACTATGCTC | 1.04 |
| GACTATGGAT | 0.947 |
| GACTATGTAA | 1.02 |
| GACTATTCCC | 0.99 |
| GACTCATAAG | 0.954 |
| GACTCATTTT | 0.996 |
| GACTCCTGCC | 1.81 |
| GACTCCTT | 0.999 |
| GACTCGGGGA | 0.982 |
| GACTCTTCGG | 1.01 |
| GACTGCTTGT | 1.03 |
| GACTGGCCGT | 1.03 |
| GACTGGGTCA | 0.978 |
| GACTGGTGCC | 1.03 |
| GACTGTCAAT | 0.974 |
| GACTGTCCGG | 0.969 |
| GACTGTGCAC | 1.05 |
| GACTGTGGTA | 1 |
| GACTGTTCCT | 1.06 |
| GACTGTTGA | 0.947 |

| Sequence | switch fluorescence ratio |
| --- | --- |
| GACTTACCCA | 1.16 |
| GACTTACGCC | 1.36 |
| GACTTCAACT | 1.06 |
| GACTTCAAGT | 1.03 |
| GACTTCCTGA | 1.05 |
| GACTTGATCT | 1.01 |
| GACTTGCTAC | 2.58 |
| GACTTGCTTG | 0.982 |
| GACTTGGCCT | 1.06 |
| GACTTTAGAT | 1.04 |
| GACTTTCCCC | 1.15 |
| GACTTTCCCT | 1.08 |
| GACTTTGGTT | 1.01 |
| GAGAAATGCT | 1.13 |
| GAGAACGATA | 1.07 |
| GAGAACGGAC | 0.988 |
| GAGAACTACA | 1.02 |
| GAGAAGGGTA | 0.975 |
| GAGAAGTAAG | 1.03 |
| GAGAATAGTT | 1.01 |
| GAGAATCGTT | 0.972 |
| GAGAATTAAG | 1.01 |
| GAGAATTACG | 1.01 |
| GAGACACCGA | 0.998 |
| GAGACCGTTG | 0.994 |

| Sequence | switch fluorescence ratio |
| --- | --- |
| GAGACGCTAG | 0.988 |
| GAGACGGGTA | 1.01 |
| GAGACTCAGC | 0.956 |
| GAGACTCGGA | 1 |
| GAGACTCTGT | 0.998 |
| GAGAGAAGGA | 0.97 |
| GAGAGAAGGT | 1.02 |
| GAGAGAGTAT | 0.96 |
| GAGAGCGCCA | 1.08 |
| GAGAGGCTCG | 0.979 |
| GAGAGGGGCC | 0.965 |
| GAGAGTAGGC | 0.911 |
| GAGATACTTT | 1 |
| GAGATAGAAG | 0.997 |
| GAGATCTGAG | 1 |
| GAGATTCGGT | 1.01 |
| GAGATTTGAT | 1.02 |
| GAGCAAGGAG | 1.24 |
| GAGCAGACTT | 1.1 |
| GAGCAGGACA | 1.09 |
| GAGCATACAG | 1.1 |
| GAGCCACGCA | 1.02 |
| GAGCCCCAGG | 3.23 |
| GAGCCCTGAC | 1.03 |
| GAGCCTACC | 1.07 |

| Sequence | switch fluorescence ratio |
| --- | --- |
| GAGCCTTAAT | 0.972 |
| GAGCCTTCAT | 1.08 |
| GAGCCTTGTG | 0.999 |
| GAGCGAAGCC | 0.964 |
| GAGCGCCAAG | 0.982 |
| GAGCGCGCCC | 0.969 |
| GAGCGGGCTA | 0.919 |
| GAGCGGGGAA | 0.989 |
| GAGCGTACAG | 1.05 |
| GAGCGTCCTT | 0.974 |
| GAGCTAGCAT | 0.951 |
| GAGCTATAAA | 1 |
| GAGCTATCTA | 0.997 |
| GAGCTGAAGG | 0.984 |
| GAGCTGATTG | 0.999 |
| GAGCTTCACA | 0.982 |
| GAGCTTCCGT | 1.32 |
| GAGGAATCGG | 1 |
| GAGGACTTTT | 0.996 |
| GAGGAGGTCC | 0.99 |
| GAGGATTCTT | 0.987 |
| GAGGATTTAT | 0.97 |
| GAGGCAGAAG | 1.09 |
| GAGGCAGCCA | 1 |
| GAGGCCTACG | 1.06 |

| Sequence | switch fluorescence ratio |
| --- | --- |
| GAGGCGATAT | 3.13 |
| GAGGCGGGAA | 0.983 |
| GAGGCTCCTG | 1.02 |
| GAGGCTGAAC | 1.13 |
| GAGGGATCCA | 0.99 |
| GAGGGCTAGA | 0.932 |
| GAGGGGTCTG | 0.952 |
| GAGGGTACTT | 1.01 |
| GAGGGTAGCC | 1.11 |
| GAGGGTATGA | 0.99 |
| GAGGGTGATG | 0.955 |
| GAGGGTGCCC | 1.07 |
| GAGGTAATGC | 1.93 |
| GAGGTACAAT | 1.01 |
| GAGGTATCGT | 1.01 |
| GAGGTCAAAT | 0.95 |
| GAGGTCGCTA | 1.03 |
| GAGGTGAAGT | 0.969 |
| GAGGTTACCG | 1.11 |
| GAGGTTCCGC | 1.08 |
| GAGGTTGTAA | 0.995 |
| GAGGTTTTT | 1.03 |
| GAGTAAAAAC | 0.994 |
| GAGTAAAATA | 1.03 |
| GAGTAAGCCA | 0.99 |

| Sequence | switch fluorescence ratio |
| --- | --- |
| GAGTAAGGG | 0.935 |
| GAGTAAGTTA | 1.03 |
| GAGTACAGAG | 1.04 |
| GAGTACCCCG | 1 |
| GAGTACGGAT | 1.01 |
| GAGTAGGGTC | 1.05 |
| GAGTAGGTCT | 0.985 |
| GAGTATGATA | 1.02 |
| GAGTATTCAA | 1.02 |
| GAGTCAAATT | 0.991 |
| GAGTCACTAG | 1.02 |
| GAGTCCACCG | 0.955 |
| GAGTCCCGAT | 1.06 |
| GAGTCGTGTT | 1 |
| GAGTCGTTCT | 0.939 |
| GAGTCTAACC | 1.04 |
| GAGTCTATTT | 0.991 |
| GAGTCTGCTT | 1.06 |
| GAGTGAACGC | 0.853 |
| GAGTGAATCA | 0.937 |
| GAGTGAGCA | 1.02 |
| GAGTGGCAGC | 0.962 |
| GAGTGGCGCC | 0.983 |
| GAGTGGGCTA | 1.01 |
| GAGTGTACGA | 1.03 |

| Sequence | switch fluorescence ratio |
| --- | --- |
| GAGTGTAGTT | 1.05 |
| GAGTGTGGAG | 0.983 |
| GAGTTACACA | 1.01 |
| GAGTTAGTCC | 1.01 |
| GAGTTCAAGA | 1.01 |
| GAGTTGCATA | 1 |
| GAGTTGGATA | 0.983 |
| GAGTTGTAAC | 1.04 |
| GAGTTGTAGG | 1.01 |
| GAGTTTCGTA | 0.989 |
| GAGTTTTCCT | 1.07 |
| GATAAAACAG | 1.03 |
| GATAAACACA | 1.03 |
| GATAAATTCG | 1.03 |
| GATAACCATA | 1.02 |
| GATAAGAGGG | 0.968 |
| GATAAGGTTA | 1.07 |
| GATAATGCGA | 1.03 |
| GATACAAATA | 0.979 |
| GATACACTTT | 0.993 |
| GATACAGGCG | 1.05 |
| GATACATATG | 1.02 |
| GATACCAACG | 1.39 |
| GATACCAGCA | 1.07 |
| GATACCGCAT | 4.3 |

| Sequence | switch fluorescence ratio |
| --- | --- |
| GATACCTGGA | 1.06 |
| GATACGAAT | 0.984 |
| GATACTGTCG | 0.986 |
| GATAGATTAT | 1.01 |
| GATAGCAAAT | 1.01 |
| GATAGCGACA | 1.01 |
| GATAGGATAA | 1.01 |
| GATAGGTCTG | 0.993 |
| GATAGTCCGT | 1.05 |
| GATAGTCTGA | 1 |
| GATAGTGTGG | 1.09 |
| GATAGTTAAT | 1 |
| GATAGTTGCT | 0.987 |
| GATATAATAG | 1 |
| GATATAGGCC | 0.989 |
| GATATAGTAA | 0.991 |
| GATATCTAA | 0.992 |
| GATATGATGA | 1.03 |
| GATATGTAA | 1.02 |
| GATATGTAGG | 1.03 |
| GATATGTGAT | 1.02 |
| GATATTAGCT | 0.988 |
| GATCAACCTG | 1.01 |
| GATCAACGCC | 1.06 |
| GATCAACTCC | 1.04 |
